Here are results for 39 variants from the RNAGym collection of RNA variant scans (doi:10.7554/elife.90254).

Read counts are not given, so values of variants with three or more changes are uncertain.

B1: LINE1-full (parent)
chain: UACGUAGGUGGUUUUCCCCUGAUAGUGCUAAGGGGGCCUGGAAGUUUGGACUGGGCAGAGCUCAACACAGCGUGGCAAAGUGGCUGUGGCUAGACUGCCUCUCUGGAUUCCUCGUCACUCAGCAGGGCAUCUCUGAGAGAAAUGCC

Variants of B1 are the subject of the data set. Kind of data set: self-cleavage, relative activity (ratio to wild type); higher = more cleavage; in vitro, sequencing; the parent is a self-cleaving ribozyme.
In the case of UACGUAGGUGGUUCUCCCCUGAUAGUGCUAAGGGGGCCUGGAAGUUUGGACUGGGCAGAGCUCAACACAGCAUGGCAAAGUGGCCGUGGCUAGACUGCCUCUCUGGAUUCCUCGUCACUCAGCAGGGCAUCUCUGAGAGAAAUGCC [U14C G72A U85C], the self-cleavage is 0.13.
In the case of UACGUAGGUGGUUUUCCCCCGAUCGUGCUAAGGGGGCCUGGAAGUUAGGACUGGGCAGAGCUCAACACAGCGUGGCAAAGUGGCUGUGGCUAGACUGCCUCUCUGGAUUCCUCGUCACUCAGCAGGGCAUCUCUGAGAGAAGUGCC [U20C A24C U47A A142G], the self-cleavage was 1.45.
In the case of UACGUAGGUGGUUUUCUCCUGAUAGCGCUAAGGGGGCCUGGAAGUUUGGACUGGGCAGAGCUCAACACAGCGUGGCAAAGUGGCUGUGGCUAGACUGCCUCUCUGGAUUACUCGUCACUCAGCAGGGCAUCUCUGAGAGAAAUGCC [C17U U26C C110A], the self-cleavage was determined as 1.16.
On to UACGUAGGCGGUUUUCCCCUGAUAGUGCUAAGGGGGCCUGGAAGUUUGGACUGGGCAGAGCUCAACACAGCGUGGCAAAGUGGCUGUGGCUAGACCGCCUCUCUGGAUUCCUCGUCACUCAGCAGGGCAUCCCUGAGAGAAAUGCC [U9C U96C U132C], for which the self-cleavage came out at 0.19.
Next, UACGUAGGUGGUUUUCCCCUGAUAGUGCUAAGGGGGCCAGGAAGUUUGGACUGGGCAGAGUUCAACACAGCGUGGCAAAGUGGCUGUGGCUUGACUGCCUCUCUGGAUUCCUCGUCACUCAGCAGGGCAUCUCUGAGAGAAAUGCC [U39A C61U A92U]: 0.02; UACGUAGGUGGCUUUCCCCUGAUAGUGCUAAGGGGGCCUGGAAGUUUGGACUGGGCAGAGCUCAACGCAGCAUGGCAGAGUGGCUGUGGCUAGACCGCCUCUCUGGAUUCCUCGUCACUCAGCAGGGCAUCCCUGAGAGAAAUGCC [U12C A67G G72A A78G U96C U132C]: 0.14.
With UACGUAGGUGGUUUUCCCCUGAUAGUGCUAAGGGGGCCAGGAAGUUUGGACCGGGCAGAGCACAACACAGCGUGGCAAAGUGGCUGUGGCUAGAUUGCCUCUCUGGAUUCCUCGUCACUCAGCAGGGCUUCUCUGAGAGAAAUGCC [U39A U52C U62A C95U A129U], the self-cleavage turned out to be 0.03.
Take UACGUAGGUGGUUUUCCCCUGAUAGUGCUAAGGGGGCCAGGAAGUUUGUACUGGGCAGAGCUCAACACAGCGUGGCUAAGUGGCUGUGGCUAGACUGCCUCUCUGGACUCCUCGUCACUCAGCAGGGCAUCUCUGAGAGAGAUGCC [U39A G49U A77U U108C A141G]: the self-cleavage came out at 1.12.
Next, UACAUAGGUAGUUUUCCCCUGAUAGUGCUAAGGGGGCCUGGAAGUUUGGACUGGGCAGAGCUCAACACAGCGUGGCAAAGUGGCUGUGGCUAGACUGCCUCUCUGGAUUCCUCGUCACUCAGCAGGGCAUCUCUGAGAGAGGUGCC [G4A G10A A141G A142G]: 1.15; UACGUAGGUGGUUUUCCCCUGAUGGUGCUAAAGGGGCCUGGAAGUUUGGACUGGGCAGAGCUCAACACUGCGUGGCAAAGUGGCUGUGGCUAGACUGCCUCUCUGGAUUCCUCGUCACUCAGCAGGGCAUCUCUGAGAGAAAUGCC [A24G G32A A69U]: 0.09; UACGUAGGUGGUUUUCCCCUGAUAGUGCUAAGGGGGCCUGGAAGUUUGGGCUGGGCAGAGCUCAACACGGCGUGGCAAAGUGGCUGUGGCUAGACUGCCUCUCUGGAUUCCUCGUCACUCAGCAGGGCAUCUCUGAGAGAAGUGCC [A50G A69G A142G]: 0.12.
For the variant UACGUAGGUGGUCUUCCCCUGAUAGUGCUAAGGGGGCCUGGAAGUUUGGAUUGGGCAGAGCUCAACACAGCGUGGCAAAGUGGCUGUGGCAAGACUGCCUCUCUGGAUUCCCCGUCACUCAGCAGGGCAUCUCUGAGGGAAAUGCC [U13C C51U U91A U112C A138G], the self-cleavage amounted to 0.64.
Turning to UACGUAGGUGGUUUUCCCCUGGUAGUGCUAAGGGGGCCUGGAAGUUUGGACUGGGCAGAGCUCAACACAGCGUGGCUAAGUGGCUGUGGCUAGACUGCCUCUCUGGAUUCCUCGUCACUCAGCGGGGCAUCUCUGAGAGAGAUGCC [A22G A77U A124G A141G], the self-cleavage is 0.82.
Next, UACGUAGGUGGUUUUCCCCUGAUAGUGCUAAGGGGGCCUGGAAGUUAGGACUGGGCAGAGCUCAACACAGCGUGGCAAAGUGGCUGUGGCUAGACUGCCUCUCUGGAUUCCUCGUCACUCAGCAGGGCGUCUCAGAGAGAAACGCC [U47A A129G U134A U143C]: 1.34.
With UACGUAGGUGGUUUUCCCCUGAUAGAGCUAAGGGGGCCUGGAAGUUUGGACUGGGCAGGGCUCAACACAGCGUGGCAAAGUGGCUGUGGCUUGACUGCCUCUCUGGAUUCCUCGUCACUCAGCAGGGCAUCUCUGAGAGAAAUGCC [U26A A59G A92U] the figure was 0.
With UACGUAGGUGGUUUUCCCCUGAUAGAGCUAAGGGGACCUGGAAGUUAGGACUGGGCAGAGCUCAACACAGCGUGGCAAAGUGGCUGUGGCUAGACUGCCUCUCUGGAUUCCUCGUCACUCAGCAGGGCAUCUCUGAGAGAAAGGCC [U26A G36A U47A U143G] the figure was 1.11; with UACGAAGGUGGUUUUCCCCUGAUAGUGCUAAGGGGGCCUGGAAGUUUGGACUGGGCAGAGCUCAACACAGCGUGGCAAAGUGGCAGUGGCUAGGCUGCUUCUCUGGAUUCCACGUCACUCAGCAGGGCAUCUCUGAGAGAAAUGCC [U5A U85A A94G C99U U112A], 0; with UACGUAGGUGGGUUCCCCCUGAUAGUGCUAAGGGGGGCUGGAAGUUUGGACUGGGCAGAGCCCAACACAGCGUGGCAAAGUGGCUGUGGCUAGACUACCUCUCUGGAUUCCUCGUCACUCAGCAGGGCAUCUCUGAGAGAUAUGCC [U12G U15C C37G U62C G97A A141U], 0.24.
Regarding CACGUAGGUGGUUUUUCCCUGAUAGUGCUAAGGGGGCCUGGAAGUUUGGACUGGGCAGAGCUCAACACAGCGUGGCAAAGUGGCUGUGGCUAGACUGCCUCUCUGGAUGCCUCGUCACUCAGCAGGGCAUCUCUGAGAGAGAUGCC [U1C C16U U109G A141G], the self-cleavage was 0.59.
With UACGUAGGUGGUUUUCCCCUGAAAGUGCUAAGGGGGCCUGGAAGUUUGGACUGGGCAGAGCUCAACACAGCGUGGCAAAGUGGCUGUGGCUAGACUGCCUCUCUGGAUUCCUCGUCACUCUGCAGGGCACCUCUGAGAGGAAUGCC [U23A A121U U130C A140G] the figure was 2.3; with UACGUAGGUGGUUUUCCCCUGAUAGUGCUAAGGGGGCCUGGAAGUUUGGACUGGGCAGGGCUCAACACAGCGCGGCAAAGUGGCUGUGGCUAGACUGCCUCCCUGGAUUCCUCGUCACUCAGCAGGGCAUCUCUGAGAGAAAUGCC [A59G U73C U102C], 0.
Regarding UACGUAGGUGGUUUUCCCCUGAUAGUGCUAAGGGGGCCUGGAAGUUUGGACUGGGCAGAGCUCAACACAGCGUGGCAAAGUGGCUGUGGCUAGACUGCCCCACUGGAUUCCUCGUCACUCAGCAGGGCGUCUCUGAGAGAAAUGCC [U100C U102A A129G], the self-cleavage stood at 1.21.
With UACGUAGGUGGUUUUCCCCUGAUAGUGCUAAGGGGGCCUGGAAGUUUGGACUGGGCAGAGCUCAACACGGCGUGGCAAAGUGGCUGUGGCUAGACUGCCUCUCUGGAUCCCUCGUCACUCAGCAGGGCAUCUCUGAGAGACAGGCC [A69G U109C A141C U143G] the figure was 0; with UACGUAGGUGGUUUUCCCCUGAUAGUGCUAAGGGGUCCUGGAAGUUUGGACUGGGCAGAGCUCAACACUGCGCGGCAAAGUGGCUGUGGCUAGACUGCCUCUCUGGAUUCCUCGUCACUCAGCGGGGCAUCUCUGAGAGAAAUGCC [G36U A69U U73C A124G], 0.05; with CACGUAGGUGGUUUUCCCCUGGUAGUGCUAAGGGGGCCUGGAAGUUUGGACUGGGCAGAGCUCAACACAGCAUGGCAAAGUGGCAGUGGCUAGACUGCCUCUCUGGAUUCCUCGUCACUCAGCAGGGCAUCUCUGAGAGAGAUGCC [U1C A22G G72A U85A A141G], 0.1.
Next, CACGUAGGCGGUUUUCCCCUGAUAGUGCUAAGGGGGCCUGGAAGUUUGGACUGGGCAGAGCUCAACACAGCGUGGCAAAGUGGCUGUGGCUAGACUGCCUCUCUGGAUUCCUCGUCACUCAGCAGGGCAUCACUGAGAGAAAUGCC [U1C U9C U132A]: 0.9; UACGUAGGUGGUUUUCCCCUGAUAGUGCUAAGGGGGCCUGGGAGUUUGGACUGGGCAGAGCUCAACACAGCGUGGCAAAGUGGCCGUGGCUAGACUGCCUCUCUGGAUUCCUCGUCACCCAGCAGGGCAUCUCUGAGAGAAAUGCC [A42G U85C U119C]: 0; UACGUAGGUGGUUUUCCCCUGAUAGUGCUAAGGGGGCCUGGAAGUUUGGACUGGGCAGAGCUCGACACAGCGUGGCAAAGUGGCUGUGGCUAGACAGCCUCUCUGGAUUCCUCGUCACUCUGCAGGGCAUCUCUGAGAGAAAUGCC [A64G U96A A121U]: 0.06.
For the variant UACGUAGGUGAUUUUCCCCUGAUAGUGCUAAGGGGGCCUGGGAGUUUGGACUGGGCAGAGCUCAACACAGCGUGGCAAAGUGGCUGAGGCUAGACUGCCUCUCUGGAUUCCCCGUCACUCAGCAGGGCAUCUCUGAGAGAAAUGCC [G11A A42G U87A U112C], the self-cleavage was 0.04.
With CACGUAGGUGGUUUUCCCCUGAUAGAGCUAAGGGGGCCUGGAAGUUUGGACUGGGCAGAGCUCAACACAGCGUGGCAAAGUGGCUGUGGCUAGACUGCCUCUCUGGAUUCCUCGUCACUCAGCCGGGCAUCUCUGAGAGAAAUGCC [U1C U26A A124C] the figure was 0.79; with UACGUAGGUGGUUUUCCCCGGAUAGUGCUAAGGGGGCCUGGAAGUGUGGACCGGGCAGGGCUCAACACAGCGUGGCAAAGUGGCUGUGGCUAGACUGCCUCUCUGGAUUCCUCGUCACUCAGCAGGGCAUCUCUGAGAGAAAUGCC [U20G U46G U52C A59G], 0; with UACGUAGGUGGUUUUCCCCUGAUAGCGCUAAAGGGGCCAGGAAGUUUGGACUGGGCAGAGCUCAACACAGCGUGGCAAAGUGGCUGUGGCUAGACUGCCUCUCUGGAUUCCUUGUCACUCAGCAGGGCAUCUCUGAGAGAAAUGCC [U26C G32A U39A C113U], 0.68.
Turning to UACGUAGGUGGUUUUCCCCUGAUAGUGCUAAGGGGGCCUGGAAGUUUGGGCUGGGCAGAGCUCAACACAGCGUGGCAAGGUGGCUGUGGCUAGACUGCCUCCCUGGAUUCCUCGUCACUCAGCAGGGCAUCUCUGAGAGAAAUGCC [A50G A79G U102C], the self-cleavage amounted to 0.
With UACGUAGGUGGUUUUCCCCUGAUAGUGCUAAGGGGGCCUGGGAGAUUGGACUGGGCAGAGCUCAACUCAGCGUGGCAAAGUGGCUGUGGCUAGACUGCCUCUCUGGAUUCCUCGUCACUCAGCAGGGCAUCUCUGAGAGAAGUGCC [A42G U45A A67U A142G] the figure was 0.1.
With UACGUAGGUGGUUUUCCCCUGAUAGUGCUAAGGGGGCCUGUAAGUUCUGACUGGGCAGAGCUCAACACAGCGUGGCAAAGUGGCUGUGGCUAGACUGCCUCUCUGGAUUCCUCGUCACUCGGCAGGGCAUCUCUGAGAGGAAUGCC [G41U U47C G48U A121G A140G] the figure was 0.75.
With UACGUAGGUGGUUUUCCCCUGAUAGUGCUAAGGGGGCCUGGUAGUUUGGACUGGGCAGAGCUCAACACAGCGUGGCAAAGUGGCUGUGGCUAGACUGCCUCUCCGGAUUCCUCGUCACUUAGCAGGGCUUCUCUGAGAGAAAUGCC [A42U U104C C120U A129U] the figure was 2.26.
Regarding UACGAAGGUGGUUUUCCCCUGAUAGUGCUAAGGGGGCCUGGAUGUUUGGACUGGGCGGAGCUCAACACAGCGUGGCGAGGUGGCUGUGGCUAGACUACCUCUCUGGGUUCCUCGUCACUCAGCAGGGCAUCUCUGAGAGAAAUGCC [U5A A43U A57G A77G A79G G97A A107G], the self-cleavage stood at 0.
With UACGUGGGUGGUUUUCCCCUGGUAGUGCUAAGGGGGCCUGGAUGUCUGGACUGGGCAGAGCUCAACACAGCGUGGCAAAGUGGCCGUGGCUAGACUGCCUCUCUGGAUUCCUCGCCACUCAGCAGGGCAUCUCUGAGAGAAAUGCC [A6G A22G A43U U46C U85C U115C] the figure was 0.
Next, UACGUGGGUGGUUUUCCCCUGAUAGUGCUAAGGGGGCCUGGAAGUUUGGACUGGGCAGAGCUCAGCACAGCGUGGCAAAGUGGCUGUGGCUAGACUGCCUCUCUGGAUUCCUCGUCACUCAGCAGGGCACCACUGAGAGGAAUGCC [A6G A65G U130C U132A A140G]: 0.16.
